# Measurements: paper PMC9911399, “Two distinct binding modes provide the RNA-binding protein RbFox with extraordinary sequence specificity”
# Positions count from the first letter of the chain named. The list shows a part of the results.
# T1: RBFOX1 RRM RbFoxmut (Fox-RRM*) (Homo sapiens, UniProt Q9NWB1 109-208, R118D;E147R;N151S;E152T)
# T1 sequence: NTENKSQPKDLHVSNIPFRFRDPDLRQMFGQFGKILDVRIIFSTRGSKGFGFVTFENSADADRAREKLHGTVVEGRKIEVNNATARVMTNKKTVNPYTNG
# B1: GGCGUGG (DNA:RNA)
# RNA: GGGAGACCGGAAUUCAGAUUGUCCGGCGUGGUUAAAUCCCGUCGUAGCCACCA
# DNA 1: CAATCTGAATTCCGGTCTCCC
# DNA 2: TGGTGGCTACGACGGGATT
# B2: AGCCUAA (DNA:RNA)
# RNA: B1 RNA with G25A, G28C, G30A, G31A
# DNA 1: CAATCTGAATTCCGGTCTCCC
# DNA 2: TGGTGGCTACGACGGGATT
# B3: UUUAGGA (DNA:RNA)
# RNA: B1 RNA with G25U, G26U, C27U, G28A, U29G, G31A
# DNA 1: CAATCTGAATTCCGGTCTCCC
# DNA 2: TGGTGGCTACGACGGGATT
# B4: CCCCUUC (DNA:RNA)
# RNA: B1 RNA with G25C, G26C, G28C, G30U, G31C
# DNA 1: CAATCTGAATTCCGGTCTCCC
# DNA 2: TGGTGGCTACGACGGGATT
# B5: CAUGUGU (DNA:RNA)
# RNA: B1 RNA with G25C, G26A, C27U, G31U
# DNA 1: CAATCTGAATTCCGGTCTCCC
# DNA 2: TGGTGGCTACGACGGGATT
# B6: AACUCAC (DNA:RNA)
# RNA: B1 RNA with G25A, G26A, G28U, U29C, G30A, G31C
# DNA 1: CAATCTGAATTCCGGTCTCCC
# DNA 2: TGGTGGCTACGACGGGATT
# B7: AUAGUCG (DNA:RNA)
# RNA: B1 RNA with G25A, G26U, C27A, G30C
# DNA 1: CAATCTGAATTCCGGTCTCCC
# DNA 2: TGGTGGCTACGACGGGATT
# B8: AAAUUGC (DNA:RNA)
# RNA: B1 RNA with G25A, G26A, C27A, G28U, G31C
# DNA 1: CAATCTGAATTCCGGTCTCCC
# DNA 2: TGGTGGCTACGACGGGATT
# B9: CUGGCCU (DNA:RNA)
# RNA: B1 RNA with G25C, G26U, C27G, U29C, G30C, G31U
# DNA 1: CAATCTGAATTCCGGTCTCCC
# DNA 2: TGGTGGCTACGACGGGATT
# B10: AGCUCGC (DNA:RNA)
# RNA: B1 RNA with G25A, G28U, U29C, G31C
# DNA 1: CAATCTGAATTCCGGTCTCCC
# DNA 2: TGGTGGCTACGACGGGATT
# B11: AUGCUGA (DNA:RNA)
# RNA: B1 RNA with G25A, G26U, C27G, G28C, G31A
# DNA 1: CAATCTGAATTCCGGTCTCCC
# DNA 2: TGGTGGCTACGACGGGATT
# B12: GGCGGUU (DNA:RNA)
# RNA: B1 RNA with U29G, G30U, G31U
# DNA 1: CAATCTGAATTCCGGTCTCCC
# DNA 2: TGGTGGCTACGACGGGATT
# B13: UGCGGGA (DNA:RNA)
# RNA: B1 RNA with G25U, U29G, G31A
# DNA 1: CAATCTGAATTCCGGTCTCCC
# DNA 2: TGGTGGCTACGACGGGATT
# B14: CUUAUAA (DNA:RNA)
# RNA: B1 RNA with G25C, G26U, C27U, G28A, G30A, G31A
# DNA 1: CAATCTGAATTCCGGTCTCCC
# DNA 2: TGGTGGCTACGACGGGATT
# B15: CUGCUCG (DNA:RNA)
# RNA: B1 RNA with G25C, G26U, C27G, G28C, G30C
# DNA 1: CAATCTGAATTCCGGTCTCCC
# DNA 2: TGGTGGCTACGACGGGATT
# B16: UACCUUG (DNA:RNA)
# RNA: B1 RNA with G25U, G26A, G28C, G30U
# DNA 1: CAATCTGAATTCCGGTCTCCC
# DNA 2: TGGTGGCTACGACGGGATT
# B17: UACUUCU (DNA:RNA)
# RNA: B1 RNA with G25U, G26A, G28U, G30C, G31U
# DNA 1: CAATCTGAATTCCGGTCTCCC
# DNA 2: TGGTGGCTACGACGGGATT
# B18: GCUACGC (DNA:RNA)
# RNA: B1 RNA with G26C, C27U, G28A, U29C, G31C
# DNA 1: CAATCTGAATTCCGGTCTCCC
# DNA 2: TGGTGGCTACGACGGGATT
# B19: GAAUGUA (DNA:RNA)
# RNA: B1 RNA with G26A, C27A, G28U, U29G, G30U, G31A
# DNA 1: CAATCTGAATTCCGGTCTCCC
# DNA 2: TGGTGGCTACGACGGGATT
# B20: AGCACAC (DNA:RNA)
# RNA: B1 RNA with G25A, G28A, U29C, G30A, G31C
# DNA 1: CAATCTGAATTCCGGTCTCCC
# DNA 2: TGGTGGCTACGACGGGATT
# B21: UAAUAUG (DNA:RNA)
# RNA: B1 RNA with G25U, G26A, C27A, G28U, U29A, G30U
# DNA 1: CAATCTGAATTCCGGTCTCCC
# DNA 2: TGGTGGCTACGACGGGATT
# B22: UCGGGCG (DNA:RNA)
# RNA: B1 RNA with G25U, G26C, C27G, U29G, G30C
# DNA 1: CAATCTGAATTCCGGTCTCCC
# DNA 2: TGGTGGCTACGACGGGATT
# B23: CGGUCCG (DNA:RNA)
# RNA: B1 RNA with G25C, C27G, G28U, U29C, G30C
# DNA 1: CAATCTGAATTCCGGTCTCCC
# DNA 2: TGGTGGCTACGACGGGATT
# B24: GGGGGGG (DNA:RNA)
# RNA: B1 RNA with C27G, U29G
# DNA 1: CAATCTGAATTCCGGTCTCCC
# DNA 2: TGGTGGCTACGACGGGATT
# B25: AGGCAAA (DNA:RNA)
# RNA: B1 RNA with G25A, C27G, G28C, U29A, G30A, G31A
# DNA 1: CAATCTGAATTCCGGTCTCCC
# DNA 2: TGGTGGCTACGACGGGATT
# B26: CAUUAGG (DNA:RNA)
# RNA: B1 RNA with G25C, G26A, C27U, G28U, U29A
# DNA 1: CAATCTGAATTCCGGTCTCCC
# DNA 2: TGGTGGCTACGACGGGATT
# B27: UCGCGGU (DNA:RNA)
# RNA: B1 RNA with G25U, G26C, C27G, G28C, U29G, G31U
# DNA 1: CAATCTGAATTCCGGTCTCCC
# DNA 2: TGGTGGCTACGACGGGATT
# B28: AACGUGU (DNA:RNA)
# RNA: B1 RNA with G25A, G26A, G31U
# DNA 1: CAATCTGAATTCCGGTCTCCC
# DNA 2: TGGTGGCTACGACGGGATT
# B29: CUAAAAU (DNA:RNA)
# RNA: GGGAGACCGGAAUUCAGAUUGUCCCUAAAAUUUAAAUCCCGUCGUAGCCACCA
# DNA 1: CAATCTGAATTCCGGTCTCCC
# DNA 2: TGGTGGCTACGACGGGATT
# B30: AAACUGU (DNA:RNA)
# RNA: B29 RNA with C25A, U26A, A28C, A29U, A30G
# DNA 1: CAATCTGAATTCCGGTCTCCC
# DNA 2: TGGTGGCTACGACGGGATT
# B31: UCUCGCU (DNA:RNA)
# RNA: B29 RNA with C25U, U26C, A27U, A28C, A29G, A30C
# DNA 1: CAATCTGAATTCCGGTCTCCC
# DNA 2: TGGTGGCTACGACGGGATT
# Target: T1, RBFOX1 RRM RbFoxmut (Fox-RRM*)
# Test: EMSA; HiTS-Eq, 1 nM pool, 10 min; buffer printed only for the single-RNA assays: 10 mM Tris pH 7.5, 150 mM NaCl, 3.4 mM EDTA, 0.001% NP-40, 30 C
# Details: tags: His6 N-terminal (pET28a); label: 5' 32P
# In short: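 Purified wild-type or mutant RbFox RRM at increasing concentrations was equilibrated with 1 nM of 5′-radiolabelled RNA carrying 7 randomized nucleotides for 10 min in 50 µL. Unbound RNA was separated by 8% native PAGE and sequenced. Relative association constants came from read-count changes of each RNA species compared with the control reaction, normalised to the cognate motif.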
row,Binder,binding signal
1,B1,0.122 KA relative to UGCAUGU
2,B2,0.0729 KA relative to UGCAUGU
3,B3,0.0776 KA relative to UGCAUGU
4,B4,0.066 KA relative to UGCAUGU
5,B5,0.213 KA relative to UGCAUGU
6,B6,0.0803 KA relative to UGCAUGU
7,B7,0.112 KA relative to UGCAUGU
8,B8,0.0959 KA relative to UGCAUGU
9,B9,0.106 KA relative to UGCAUGU
10,B10,0.0811 KA relative to UGCAUGU
11,B11,0.114 KA relative to UGCAUGU
12,B12,0.111 KA relative to UGCAUGU
13,B13,0.0644 KA relative to UGCAUGU
14,B14,0.122 KA relative to UGCAUGU
15,B15,0.233 KA relative to UGCAUGU
16,B16,0.1 KA relative to UGCAUGU

row,Binder,binding signal
1,B17,0.0707 KA relative to UGCAUGU
2,B18,0.0957 KA relative to UGCAUGU
3,B19,1.18 KA relative to UGCAUGU
4,B20,0.0849 KA relative to UGCAUGU
5,B21,0.104 KA relative to UGCAUGU
6,B22,0.0862 KA relative to UGCAUGU
7,B23,0.16 KA relative to UGCAUGU
8,B24,0.0675 KA relative to UGCAUGU
9,B25,0.0763 KA relative to UGCAUGU
10,B26,0.0916 KA relative to UGCAUGU
11,B27,0.1 KA relative to UGCAUGU
12,B28,0.122 KA relative to UGCAUGU
13,B29,0.0447 KA relative to UGCAUGU
14,B30,0.073 KA relative to UGCAUGU
15,B31,0.0966 KA relative to UGCAUGU
